{"source": "the supplement of paper PMC3724861", "note": "The other results are listed elsewhere or left out."}
{"tested_on": "T1, Caupolican (Caup) homeodomain DNA-binding domain", "T1 sequence": "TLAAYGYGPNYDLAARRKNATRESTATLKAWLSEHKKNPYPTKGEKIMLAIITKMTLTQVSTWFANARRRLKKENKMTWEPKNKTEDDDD", "assay": "PBM E-score (8-mer, recovered from the published 9-mer minima) (E-score (dimensionless, -0.5 to 0.5)); Drosophila protein; higher = stronger relative binding preference, active = 0.31 or more", "outline": "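An enrichment score, with higher meaning stronger, expresses relative binding preference for each short DNA word. The protein used was Caup's homeodomain DNA-binding domain (residues 214-303), produced by in vitro transcription and translation and tested at 100 nM on custom-designed protein binding microarrays. The 8-mer values were recovered from published 9-mer scores, each equal to the lower of its two constituent 8-mer scores.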"}
{"sequence": "TAATTGCA", "PBM E-score": "inactive: 0.0768"}
{"sequence": "ATTGTATG", "PBM E-score": "inactive: 0.196"}
{"sequence": "CAGCCGTC", "PBM E-score": "inactive: -0.127"}
{"sequence": "AATGCCTC", "PBM E-score": "inactive: -0.0478"}
{"sequence": "CGCTATTC", "PBM E-score": "inactive: 0.105"}
{"sequence": "GCAGCTTA", "PBM E-score": "inactive: -0.075"}
{"sequence": "CCCCAAGA", "PBM E-score": "inactive: -0.0902"}
{"sequence": "ACGAGTTA", "PBM E-score": "inactive: 0.126"}
{"sequence": "AAATTGTA", "PBM E-score": "inactive: 0.221"}
{"sequence": "TAGTAACA", "PBM E-score": "active: ≥ 0.316"}
{"sequence": "ATCTAAGG", "PBM E-score": "inactive: -0.0527"}
{"sequence": "ATCCGTGA", "PBM E-score": "inactive: -0.0217"}
{"sequence": "ACCTAACG", "PBM E-score": "inactive: -0.142"}
{"sequence": "GACCTCGA", "PBM E-score": "inactive: -0.0288"}
{"sequence": "ACTAGATC", "PBM E-score": "inactive: 0.0865"}
{"sequence": "ATGCGTGG", "PBM E-score": "inactive: -0.0631"}
{"sequence": "CCCGGCAG", "PBM E-score": "inactive: -0.269"}
{"sequence": "CAAGGATC", "PBM E-score": "inactive: 0.0846"}
{"sequence": "AGACCGTA", "PBM E-score": "inactive: -0.0541"}
{"sequence": "TCGCTTAA", "PBM E-score": "inactive: 0.0301"}
{"sequence": "AAAGTGTA", "PBM E-score": "inactive: 0.166"}
{"sequence": "TTGAACAA", "PBM E-score": "inactive: 0.226"}
{"sequence": "CGCCCTAG", "PBM E-score": "inactive: -0.274"}
{"sequence": "AACTGTCC", "PBM E-score": "inactive: 0.00083"}
{"sequence": "CACGTGGA", "PBM E-score": "inactive: 0.1"}
{"sequence": "CTCACTTA", "PBM E-score": "inactive: 0.00895"}
{"sequence": "ATGACGCG", "PBM E-score": "inactive: 0.0946"}
{"sequence": "ACGAAAGA", "PBM E-score": "inactive: -0.00046"}
{"sequence": "AGGCCCGA", "PBM E-score": "inactive: -0.17"}
{"sequence": "ATTTATCA", "PBM E-score": "inactive: 0.133"}
{"sequence": "CATGTTTC", "PBM E-score": "active: 0.355"}
{"sequence": "CTCGTAAA", "PBM E-score": "inactive: 0.0886"}
{"sequence": "TGATTGAA", "PBM E-score": "inactive: 0.139"}
{"sequence": "GGAACGCA", "PBM E-score": "inactive: -0.2"}
{"sequence": "ATAACGAG", "PBM E-score": "inactive: 0.132"}
{"sequence": "GGACTCAA", "PBM E-score": "inactive: -0.0238"}
{"sequence": "GTAACAGA", "PBM E-score": "inactive: 0.211"}
{"sequence": "CGTTACAA", "PBM E-score": "inactive: 0.289"}
{"sequence": "CACTTAGA", "PBM E-score": "inactive: 0.0817"}
{"sequence": "AGTTAGCG", "PBM E-score": "inactive: 0.029"}
{"sequence": "CCCGCGAC", "PBM E-score": "inactive: -0.197"}
{"sequence": "ACTAGCTG", "PBM E-score": "inactive: 0.0585"}
{"sequence": "AACCCAAA", "PBM E-score": "inactive: -0.0328"}
{"sequence": "CAGTGACA", "PBM E-score": "inactive: 0.207"}
{"sequence": "ATATAAAT", "PBM E-score": "≥ 0.192"}
{"sequence": "GAGCGGCA", "PBM E-score": "inactive: -0.199"}
{"sequence": "CAAGCCCC", "PBM E-score": "inactive: -0.174"}
{"sequence": "TATGAGCA", "PBM E-score": "inactive: -0.01"}
{"sequence": "TGTTGCAA", "PBM E-score": "inactive: 0.276"}
{"sequence": "ATAGAGAG", "PBM E-score": "inactive: -0.00882"}
{"sequence": "ACTTTTCC", "PBM E-score": "inactive: 0.0593"}
{"sequence": "AGTGTTCC", "PBM E-score": "inactive: 0.05"}
{"sequence": "GGGGACCA", "PBM E-score": "inactive: -0.156"}
{"sequence": "CCATGCAC", "PBM E-score": "inactive: -0.0759"}
{"sequence": "CACCGAGC", "PBM E-score": "inactive: -0.0438"}
{"sequence": "GGTATACC", "PBM E-score": "inactive: 0.116"}
{"sequence": "AGCATGTA", "PBM E-score": "active: ≥ 0.413"}
{"sequence": "GCTGAGAA", "PBM E-score": "inactive: -0.167"}
{"sequence": "CGTTATTC", "PBM E-score": "inactive: 0.0883"}
{"sequence": "GAATTCGA", "PBM E-score": "inactive: -0.00134"}
{"sequence": "CTTATGAC", "PBM E-score": "inactive: 0.0924"}
{"sequence": "AATCCTGT", "PBM E-score": "inactive: 0.213"}
{"sequence": "AAGTCCTC", "PBM E-score": "inactive: -0.0833"}
{"sequence": "CGATTATA", "PBM E-score": "inactive: 0.144"}
{"sequence": "AGCGGTGG", "PBM E-score": "inactive: -0.264"}
{"sequence": "CAAGCTCA", "PBM E-score": "inactive: -0.0103"}
{"sequence": "AGACGTGG", "PBM E-score": "inactive: -0.0599"}
{"sequence": "ACTTTAAA", "PBM E-score": "inactive: 0.107"}
{"sequence": "AGTGCTCA", "PBM E-score": "inactive: -0.0761"}
{"sequence": "CTCTCTTA", "PBM E-score": "inactive: -0.0249"}
{"sequence": "CGAAGTTA", "PBM E-score": "inactive: 0.0673"}
{"sequence": "AAAGCGGC", "PBM E-score": "inactive: -0.198"}
{"sequence": "CCCCCGAC", "PBM E-score": "inactive: -0.222"}
{"sequence": "CCTCACCG", "PBM E-score": "inactive: -0.187"}
{"sequence": "GTGTTCAA", "PBM E-score": "inactive: 0.266"}
{"sequence": "GAGCCAGC", "PBM E-score": "inactive: -0.154"}
{"sequence": "ACCGAGGT", "PBM E-score": "inactive: -0.0941"}
{"sequence": "CGAATAAC", "PBM E-score": "inactive: 0.197"}
{"sequence": "ACACGTGA", "PBM E-score": "inactive: 0.31"}
{"sequence": "AAACGAGG", "PBM E-score": "inactive: -0.0546"}
{"sequence": "ACCGCTAG", "PBM E-score": "inactive: -0.0641"}
{"sequence": "CAGTAGCG", "PBM E-score": "inactive: -0.17"}
{"sequence": "AACTTGTC", "PBM E-score": "inactive: 0.27"}
{"sequence": "TAACTCGA", "PBM E-score": "≥ 0.126"}
{"sequence": "CTAGGTAA", "PBM E-score": "inactive: 0.0563"}
{"sequence": "ACTGCGAC", "PBM E-score": "inactive: -0.0147"}
{"sequence": "TATATTAA", "PBM E-score": "inactive: 0.208"}
{"sequence": "ACAGAATC", "PBM E-score": "inactive: 0.0503"}
{"sequence": "AGATGTAT", "PBM E-score": "inactive: 0.29"}
{"sequence": "CACCTGCC", "PBM E-score": "inactive: -0.123"}
{"sequence": "CGTCAGGA", "PBM E-score": "inactive: -0.00148"}
{"sequence": "GACTGAAC", "PBM E-score": "inactive: -0.0053"}
{"sequence": "GATGTACA", "PBM E-score": "active: 0.404"}
{"sequence": "AATCGCGG", "PBM E-score": "inactive: -0.165"}
{"sequence": "GGTCCAAC", "PBM E-score": "inactive: -0.186"}
{"sequence": "ACCTGGTG", "PBM E-score": "inactive: -0.0218"}
{"sequence": "AAAGGAGT", "PBM E-score": "inactive: 0.016"}
{"sequence": "ATCGAGGC", "PBM E-score": "inactive: -0.124"}
{"sequence": "GTGGGCCA", "PBM E-score": "inactive: -0.159"}
{"sequence": "CATCGTCA", "PBM E-score": "inactive: 0.0807"}
{"sequence": "GTTCAGCA", "PBM E-score": "inactive: 0.0779"}
{"sequence": "CCCTCTGA", "PBM E-score": "inactive: -0.158"}
{"sequence": "GTCTGTCA", "PBM E-score": "inactive: 0.182"}
{"sequence": "AGGAAAAG", "PBM E-score": "inactive: 0.0484"}
{"sequence": "AATGGATA", "PBM E-score": "inactive: 0.0292"}
{"sequence": "AACTTTCG", "PBM E-score": "inactive: -0.00535"}
{"sequence": "ACGCCCGC", "PBM E-score": "inactive: -0.227"}
{"sequence": "GATGACAC", "PBM E-score": "inactive: 0.219"}
{"sequence": "CAACGATG", "PBM E-score": "inactive: 0.131"}
{"sequence": "CTCTAGAG", "PBM E-score": "inactive: -0.167"}
{"sequence": "ACTGTTAA", "PBM E-score": "inactive: 0.0659"}
